The antibiotic and cytotoxicity screens of Wong et al. (2023)
This is one part of the list.

How the values were obtained:
[1] = tested on: HSkMC (human skeletal muscle cells); assay: cytotoxicity call (relative viability < 0.9); conditions: 10 µM
[2] = tested on: HepG2; assay: cytotoxicity call (relative viability < 0.9); conditions: 10 µM
[3] = tested on: S. aureus RN4220; assay: growth inhibition call (relative growth <= 0.2); conditions: 50 µM

CCCC(=O)Nc1ccc2c(c1)C(=O)N(C)C[C@H](OC)[C@@H](C)CN(S(=O)(=O)c1cn(C)cn1)[C@H](C)CO2
cytotoxicity call [1]: inactive | cytotoxicity call [2]: inactive | growth inhibition call [3]: inactive

COc1ccc(NC(=O)Nc2ccc3c(c2)C(=O)N([C@H](C)CO)C[C@H](C)[C@H](CN(C)C(=O)Nc2c(C)noc2C)OCCCC[C@H](C)O3)cc1
cytotoxicity call [1]: inactive | cytotoxicity call [2]: inactive | growth inhibition call [3]: inactive

N=C(N)NC[C@H]1COC2(CCCCC2)O1
cytotoxicity call [1]: inactive | cytotoxicity call [2]: inactive | growth inhibition call [3]: inactive

COc1ccc(NC(=O)Nc2ccc3c(c2)C(=O)N([C@@H](C)CO)C[C@H](C)[C@@H](CN(C)Cc2ccc(C(F)(F)F)cc2)O3)cc1
cytotoxicity call [1]: inactive | cytotoxicity call [2]: active | growth inhibition call [3]: inactive

CO[C@H]1CN(C)C(=O)c2ccc(NS(=O)(=O)c3cn(C)cn3)cc2OC[C@H](C)N(CC2CC2)C[C@@H]1C
cytotoxicity call [1]: inactive | cytotoxicity call [2]: inactive | growth inhibition call [3]: inactive

COC(=O)OCOc1c2n(ccc1=O)N([C@@H]1c3ccccc3SCc3c1ccc(F)c3F)[C@@H]1COCCN1C2=O
cytotoxicity call [1]: inactive | cytotoxicity call [2]: inactive | growth inhibition call [3]: inactive

C[C@@H]1CCCCO[C@@H](CN(C)C(=O)CCC(F)(F)F)[C@@H](C)CN([C@H](C)CO)C(=O)c2cc(NS(=O)(=O)c3ccccc3)ccc2O1
cytotoxicity call [1]: inactive | cytotoxicity call [2]: inactive | growth inhibition call [3]: inactive

C[C@H]1CN([C@@H](C)CO)C(=O)c2cccc(NS(=O)(=O)c3ccccc3)c2O[C@@H]1CN(C)S(=O)(=O)c1ccc(F)cc1
cytotoxicity call [1]: inactive | cytotoxicity call [2]: inactive | growth inhibition call [3]: inactive

C[C@H]1CCCCO[C@H](CN(C)C(=O)C2CCCCC2)[C@@H](C)CN([C@@H](C)CO)C(=O)c2cc(NC(=O)Cc3ccccc3)ccc2O1
cytotoxicity call [1]: inactive | cytotoxicity call [2]: inactive | growth inhibition call [3]: inactive

CC1(C)[C@H]2CC[C@@]1(CS(N)(=O)=O)C(=O)C2
cytotoxicity call [1]: inactive | cytotoxicity call [2]: inactive | growth inhibition call [3]: inactive

C[C@H](C(=O)O)c1ccc(C2CCCCC2)c2ccccc12
cytotoxicity call [1]: inactive | cytotoxicity call [2]: inactive | growth inhibition call [3]: inactive

Cc1ccc(S(=O)(=O)Nc2ccc3c(c2)C(=O)N([C@H](C)CO)C[C@@H](C)[C@H](CN(C)C(=O)Nc2cccc4ccccc24)O3)cc1
cytotoxicity call [1]: inactive | cytotoxicity call [2]: active | growth inhibition call [3]: inactive

C[C@H](CO)N1C[C@H](C)[C@H](CN(C)C(=O)Nc2cccc3ccccc23)Oc2ccc(NC(=O)Nc3ccccc3)cc2C1=O
cytotoxicity call [1]: inactive | cytotoxicity call [2]: inactive | growth inhibition call [3]: inactive

C[C@H]1CN([C@@H](C)CO)C(=O)c2cc(NS(=O)(=O)c3ccc(Cl)cc3)ccc2O[C@@H]1CN(C)Cc1ccc(Cl)c(Cl)c1
cytotoxicity call [1]: active | cytotoxicity call [2]: active | growth inhibition call [3]: inactive

COC(=O)CCCCC(=O)c1[nH]c(=O)[nH]c1C
cytotoxicity call [1]: inactive | cytotoxicity call [2]: inactive | growth inhibition call [3]: inactive

COc1ccc(NC(=O)Nc2ccc3c(c2)C(=O)N([C@@H](C)CO)C[C@H](C)[C@@H](CN(C)C(=O)Nc2ccc(C(F)(F)F)cc2)O3)cc1
cytotoxicity call [1]: inactive | cytotoxicity call [2]: inactive | growth inhibition call [3]: inactive

COc1ccc(C#Cc2cccc(-c3nc(C(=O)N[C@@H]4CCN(Cc5ccccc5)C4)cc4c3[C@@H](CCO)N(S(=O)C(C)(C)C)C4)c2)cc1OC (stereo partly drawn)
cytotoxicity call [1]: inactive | cytotoxicity call [2]: inactive | growth inhibition call [3]: inactive

O=C(O)CN(CCN(CC(=O)O)CC(=O)O)CC(=O)O.[Na+].[Na+]
cytotoxicity call [1]: inactive | cytotoxicity call [2]: inactive | growth inhibition call [3]: inactive

C[C@H]1CN([C@@H](C)CO)C(=O)c2cccc(NC(=O)c3cnccn3)c2O[C@@H]1CN(C)CC1CCCCC1
cytotoxicity call [1]: inactive | cytotoxicity call [2]: inactive | growth inhibition call [3]: inactive

C[C@@H]1CN([C@@H](C)CO)C(=O)c2cc(NS(=O)(=O)c3ccc(Cl)cc3)ccc2O[C@@H]1CN(C)Cc1ccc(C(=O)Nc2ccccc2N)cc1
cytotoxicity call [1]: inactive | cytotoxicity call [2]: active | growth inhibition call [3]: inactive

C[C@H]1CN([C@@H](C)CO)S(=O)(=O)c2ccc(-c3cncnc3)cc2O[C@@H]1CN(C)C(=O)CN(C)C
cytotoxicity call [1]: inactive | cytotoxicity call [2]: inactive | growth inhibition call [3]: inactive

c1cnc(N2CC[N+]3(CCCC3)CC2)nc1
cytotoxicity call [1]: inactive | cytotoxicity call [2]: inactive | growth inhibition call [3]: inactive

CN(C)CC(=O)N[C@H]1C=C[C@@H](CC(=O)NCCN2CCCCC2)O[C@@H]1CO
cytotoxicity call [1]: inactive | cytotoxicity call [2]: active | growth inhibition call [3]: inactive

COc1ccc(COC[C@]23NC(=O)N[C@H](c4ccccc4O2)[C@H]3COC(=O)NCCCCCC(=O)NO)cc1
cytotoxicity call [1]: inactive | cytotoxicity call [2]: inactive | growth inhibition call [3]: inactive

C[C@@H]1CN([C@@H](C)CO)C(=O)Cc2cc(N(C)C)ccc2O[C@H]1CN(C)C(=O)Nc1ccc2c(c1)OCO2
cytotoxicity call [1]: inactive | cytotoxicity call [2]: inactive | growth inhibition call [3]: inactive

C[C@@H]1CN([C@H](C)CO)C(=O)c2cccc(NC(=O)c3ccc(-c4nccs4)cc3)c2O[C@H]1CN(C)Cc1ccc(Oc2ccccc2)cc1
cytotoxicity call [1]: inactive | cytotoxicity call [2]: inactive | growth inhibition call [3]: inactive
